Measurements from article PMC9911399, “Two distinct binding modes provide the RNA-binding protein RbFox with extraordinary sequence specificity”.
Positions count from the first letter of the chain named. This is one part of the list.

B1: CGAAGCG (DNA:RNA)
RNA: GGGAGACCGGAAUUCAGAUUGUCCCGAAGCGUUAAAUCCCGUCGUAGCCACCA
DNA 1: CAATCTGAATTCCGGTCTCCC
DNA 2: TGGTGGCTACGACGGGATT
B2: CACCCGU (DNA:RNA)
RNA: B1 RNA with G26A, A27C, A28C, G29C, C30G, G31U
DNA 1: CAATCTGAATTCCGGTCTCCC
DNA 2: TGGTGGCTACGACGGGATT
B3: CCGACGG (DNA:RNA)
RNA: B1 RNA with G26C, A27G, G29C, C30G
DNA 1: CAATCTGAATTCCGGTCTCCC
DNA 2: TGGTGGCTACGACGGGATT
B4: ACUGCAA (DNA:RNA)
RNA: GGGAGACCGGAAUUCAGAUUGUCCACUGCAAUUAAAUCCCGUCGUAGCCACCA
DNA 1: CAATCTGAATTCCGGTCTCCC
DNA 2: TGGTGGCTACGACGGGATT
B5: AUCGCAG (DNA:RNA)
RNA: B4 RNA with C26U, U27C, A31G
DNA 1: CAATCTGAATTCCGGTCTCCC
DNA 2: TGGTGGCTACGACGGGATT
B6: AGAAUUU (DNA:RNA)
RNA: B1 RNA with C25A, G29U, C30U, G31U
DNA 1: CAATCTGAATTCCGGTCTCCC
DNA 2: TGGTGGCTACGACGGGATT
B7: GCUCCGU (DNA:RNA)
RNA: B4 RNA with A25G, G28C, A30G, A31U
DNA 1: CAATCTGAATTCCGGTCTCCC
DNA 2: TGGTGGCTACGACGGGATT
B8: UGUGGCU (DNA:RNA)
RNA: B1 RNA with C25U, A27U, A28G, G31U
DNA 1: CAATCTGAATTCCGGTCTCCC
DNA 2: TGGTGGCTACGACGGGATT
B9: CGUGUAC (DNA:RNA)
RNA: B4 RNA with A25C, C26G, C29U, A31C
DNA 1: CAATCTGAATTCCGGTCTCCC
DNA 2: TGGTGGCTACGACGGGATT
B10: AUCUUUU (DNA:RNA)
RNA: B4 RNA with C26U, U27C, G28U, C29U, A30U, A31U
DNA 1: CAATCTGAATTCCGGTCTCCC
DNA 2: TGGTGGCTACGACGGGATT
B11: UAGGGUA (DNA:RNA)
RNA: B4 RNA with A25U, C26A, U27G, C29G, A30U
DNA 1: CAATCTGAATTCCGGTCTCCC
DNA 2: TGGTGGCTACGACGGGATT
B12: GGAAACU (DNA:RNA)
RNA: B1 RNA with C25G, G29A, G31U
DNA 1: CAATCTGAATTCCGGTCTCCC
DNA 2: TGGTGGCTACGACGGGATT
B13: UGAUUAC (DNA:RNA)
RNA: B1 RNA with C25U, A28U, G29U, C30A, G31C
DNA 1: CAATCTGAATTCCGGTCTCCC
DNA 2: TGGTGGCTACGACGGGATT
B14: AGCAGAC (DNA:RNA)
RNA: B1 RNA with C25A, A27C, C30A, G31C
DNA 1: CAATCTGAATTCCGGTCTCCC
DNA 2: TGGTGGCTACGACGGGATT
B15: GGCAGAA (DNA:RNA)
RNA: B1 RNA with C25G, A27C, C30A, G31A
DNA 1: CAATCTGAATTCCGGTCTCCC
DNA 2: TGGTGGCTACGACGGGATT
B16: GAGCCCG (DNA:RNA)
RNA: B1 RNA with C25G, G26A, A27G, A28C, G29C
DNA 1: CAATCTGAATTCCGGTCTCCC
DNA 2: TGGTGGCTACGACGGGATT
B17: AAGUGCC (DNA:RNA)
RNA: B1 RNA with C25A, G26A, A27G, A28U, G31C
DNA 1: CAATCTGAATTCCGGTCTCCC
DNA 2: TGGTGGCTACGACGGGATT
B18: UACUCGG (DNA:RNA)
RNA: B4 RNA with A25U, C26A, U27C, G28U, A30G, A31G
DNA 1: CAATCTGAATTCCGGTCTCCC
DNA 2: TGGTGGCTACGACGGGATT
B19: GCAUGUU (DNA:RNA)
RNA: B1 RNA with C25G, G26C, A28U, C30U, G31U
DNA 1: CAATCTGAATTCCGGTCTCCC
DNA 2: TGGTGGCTACGACGGGATT
B20: UCAAGAU (DNA:RNA)
RNA: B1 RNA with C25U, G26C, C30A, G31U
DNA 1: CAATCTGAATTCCGGTCTCCC
DNA 2: TGGTGGCTACGACGGGATT
B21: CUCAACA (DNA:RNA)
RNA: B1 RNA with G26U, A27C, G29A, G31A
DNA 1: CAATCTGAATTCCGGTCTCCC
DNA 2: TGGTGGCTACGACGGGATT
B22: GUAGGGG (DNA:RNA)
RNA: B1 RNA with C25G, G26U, A28G, C30G
DNA 1: CAATCTGAATTCCGGTCTCCC
DNA 2: TGGTGGCTACGACGGGATT
B23: UGUCUCG (DNA:RNA)
RNA: B1 RNA with C25U, A27U, A28C, G29U
DNA 1: CAATCTGAATTCCGGTCTCCC
DNA 2: TGGTGGCTACGACGGGATT
B24: ACAUAAC (DNA:RNA)
RNA: B4 RNA with U27A, G28U, C29A, A31C
DNA 1: CAATCTGAATTCCGGTCTCCC
DNA 2: TGGTGGCTACGACGGGATT
B25: CUUCCCU (DNA:RNA)
RNA: B4 RNA with A25C, C26U, G28C, A30C, A31U
DNA 1: CAATCTGAATTCCGGTCTCCC
DNA 2: TGGTGGCTACGACGGGATT
B26: CUAGAUG (DNA:RNA)
RNA: B1 RNA with G26U, A28G, G29A, C30U
DNA 1: CAATCTGAATTCCGGTCTCCC
DNA 2: TGGTGGCTACGACGGGATT
B27: GACUAAU (DNA:RNA)
RNA: B4 RNA with A25G, C26A, U27C, G28U, C29A, A31U
DNA 1: CAATCTGAATTCCGGTCTCCC
DNA 2: TGGTGGCTACGACGGGATT
B28: CUCCCCA (DNA:RNA)
RNA: B4 RNA with A25C, C26U, U27C, G28C, A30C
DNA 1: CAATCTGAATTCCGGTCTCCC
DNA 2: TGGTGGCTACGACGGGATT
B29: CCUGUCA (DNA:RNA)
RNA: B4 RNA with A25C, C29U, A30C
DNA 1: CAATCTGAATTCCGGTCTCCC
DNA 2: TGGTGGCTACGACGGGATT
B30: UUGUGUC (DNA:RNA)
RNA: B1 RNA with C25U, G26U, A27G, A28U, C30U, G31C
DNA 1: CAATCTGAATTCCGGTCTCCC
DNA 2: TGGTGGCTACGACGGGATT
B31: CAUUGCA (DNA:RNA)
RNA: B1 RNA with G26A, A27U, A28U, G31A
DNA 1: CAATCTGAATTCCGGTCTCCC
DNA 2: TGGTGGCTACGACGGGATT

These binders were tested against T1, RBFOX1 RRM RbFoxmut (Fox-RRM*) (Homo sapiens, UniProt Q9NWB1 109-208, R118D;E147R;N151S;E152T) (assay: EMSA; HiTS-Eq, 1 nM pool, 10 min; buffer printed only for the single-RNA assays: 10 mM Tris pH 7.5, 150 mM NaCl, 3.4 mM EDTA, 0.001% NP-40, 30 C). Details: tags: His6 N-terminal (pET28a); label: 5' 32P.
T1 sequence: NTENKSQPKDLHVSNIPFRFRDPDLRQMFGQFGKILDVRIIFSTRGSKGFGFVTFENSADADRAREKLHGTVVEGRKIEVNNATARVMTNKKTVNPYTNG
Procedure, shortened: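 Purified wild-type or mutant RbFox RRM at increasing concentrations was equilibrated with 1 nM of 5′-radiolabelled RNA carrying 7 randomized nucleotides for 10 min in 50 µL. Unbound RNA was separated by 8% native PAGE and sequenced. Relative association constants came from read-count changes of each RNA species compared with the control reaction, normalised to the cognate motif.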

Row | Binder | binding signal
1 | B1 | 0.108 KA relative to UGCAUGU
2 | B2 | 0.1 KA relative to UGCAUGU
3 | B3 | 0.0705 KA relative to UGCAUGU
4 | B4 | 0.0722 KA relative to UGCAUGU
5 | B5 | 0.124 KA relative to UGCAUGU
6 | B6 | 0.0901 KA relative to UGCAUGU
7 | B7 | 0.0921 KA relative to UGCAUGU
8 | B8 | 0.129 KA relative to UGCAUGU
9 | B9 | 0.113 KA relative to UGCAUGU
10 | B10 | 0.0898 KA relative to UGCAUGU
11 | B11 | 0.138 KA relative to UGCAUGU
12 | B12 | 0.0532 KA relative to UGCAUGU
13 | B13 | 0.0902 KA relative to UGCAUGU
14 | B14 | 0.0855 KA relative to UGCAUGU
15 | B15 | 0.0784 KA relative to UGCAUGU
16 | B16 | 0.0755 KA relative to UGCAUGU

Row | Binder | binding signal
17 | B17 | 0.246 KA relative to UGCAUGU
18 | B18 | 0.0779 KA relative to UGCAUGU
19 | B19 | 0.776 KA relative to UGCAUGU
20 | B20 | 0.0694 KA relative to UGCAUGU
21 | B21 | 0.0885 KA relative to UGCAUGU
22 | B22 | 0.0798 KA relative to UGCAUGU
23 | B23 | 0.32 KA relative to UGCAUGU
24 | B24 | 0.0862 KA relative to UGCAUGU
25 | B25 | 0.0567 KA relative to UGCAUGU
26 | B26 | 0.139 KA relative to UGCAUGU
27 | B27 | 0.0983 KA relative to UGCAUGU
28 | B28 | 0.0634 KA relative to UGCAUGU
29 | B29 | 0.0946 KA relative to UGCAUGU
30 | B30 | 0.357 KA relative to UGCAUGU
31 | B31 | 0.292 KA relative to UGCAUGU
